Test results published in ChEMBL document CHEMBL5308541, “MAIP: An Open-Source Tool to Enrich High-Throughput Screening Output and Identify Novel, Druglike Molecules with Antimalarial Activity” (ACS Med Chem Lett, 2023).
The whole screen tested about 150,000 compounds, of which about 540 (0.36%) showed an effect of 50% or more. The list shows a part of the results.

system: Plasmodium falciparum; assay: Primary screen in NF54 nanoGlo assay, in single point, at 2uM, 72h; a lower Z score goes with more inhibition; format: functional, Erythrocyte; settings: timepoint 72 hour

SMILES	% Inhibition	Z score
CNc1ccc(-c2cccc(C(=O)N[C@H]3CCCN(c4ncccn4)C3)c2)cc1	-7%	1.36
Cn1cc(-c2ccnc(NCc3cccc(OC4CC4)c3F)n2)cn1	-13%	2.31
COc1ccc(-c2cncc(C(=O)NCC3CCN(CCN(C)C)CC3)c2)cc1	94%	-16.22
Cc1cccc(Nc2ccnc(Nc3ccc(N4CCN(C)CC4)cc3)n2)c1	89%	-13.46
C[C@H](O)CN(C)C1CCN(C(=O)c2ccc3c(c2)nc(C(F)F)n3C)CC1	-14%	2.97
CC(=O)c1[nH]c(C)c(C(=O)N2CCN3C(COCC3c3ccccc3)C2)c1C (centres undefined)	-3%	0.48
COc1ccc2cc(-c3cc(N)ccn3)[nH]c2c1	54%	-11.7
CN1CC2(CCNCC2)C[C@H]1C(=O)NC1CCN(Cc2ccccc2)CC1	3%	-0.61
Cn1c(=O)c(-c2nc3cc(N4CCOCC4)ccc3[nH]2)c(Cl)c2cc(Cl)ccc21	-19%	2.96
O=c1c(C(F)(F)F)cc(-c2ccccc2)nn1Cc1csc(Nc2ccccc2)n1	-15%	2.24
COc1cccc(CNc2nc(CN3CCN(C(C)C)CC3)nc3ccc(Cl)cc23)c1OC	6%	-1.09
Cc1nn(C)c(Oc2ccc(Cl)cc2)c1-c1nc2cc(C#N)ccc2[nH]1	-2%	0.29
C1Cc2nc(NC3CC3)nc(N3CCC(c4nnn[nH]4)CC3)c2CCN1	-11%	1.9
Cc1ccn2cc(-c3ccc(N4CCC(NCc5cccnc5)CC4)cc3)nc2c1	40%	-6.85
c1c[nH]c(-c2cncc(-c3ccc4c(c3)CCN4)c2)n1	-10%	1.81
COc1n[nH]c(NC(=O)C2C3CCC(CC3)C2C(F)(F)F)n1 (centres undefined)	3%	-0.44
C(CN1CCC(N2CCCC2)C1)CN1CCC(N2CCCC2)C1 (centres undefined)	4%	-0.81
OCC1CCN(Cc2ccccc2NC2CCN([C@H]3CCOC3)CC2)CC1	-6%	0.88
Cn1cc(-c2nc(C(=O)N(c3cccc(N4CCCC4)c3)C3CCCCCC3)cs2)cn1	-1%	0.25
CN(C)CCN1CCC(NC(=O)NCC2CCN(c3ccncc3)CC2)CC1	3%	-0.56
Cc1cnc(NCc2ccc3c(c2)CCCO3)nc1N(C)C	-6%	1.14
CC(=O)c1[nH]c(C)c(C(=O)N2CCC[C@H](CNC(=O)c3cncc(F)c3)C2)c1C	-2%	0.41
CO[C@@H]1C[C@H](CNC(=O)c2cnc3[nH]ccc3c2)N(c2ccncn2)C1	-7%	1.39
CS(=O)(=O)CCN1CCC(Nc2nc3ccc(F)cc3o2)CC1	2%	-0.33
CC(C)Oc1cc(NC[C@H]2CCNC2)ncn1	-4%	0.8
C[C@@H](CNc1nc2ccccc2[nH]1)c1nccs1	0%	0.04

SMILES	% Inhibition	Z score
Nc1nc(N2CCOCC2)cc(N2CCC([C@H](O)c3ccccn3)CC2)n1	-16%	2.41
CN(Cc1nc2ccc(F)cc2[nH]1)C(=O)c1cc(-c2ccsc2)[nH]n1	-3%	0.56
CN1CCN(CCCNC2CCCC2Cc2ccccc2)CC1 (centres undefined)	13%	-2.22
Cc1ccc(-n2[nH]c(C(=O)Nc3ccc4[nH]c(-c5ccc(F)cc5)nc4c3)cc2=O)cc1	-5%	0.94
CC(=O)N[C@H]1CCN(C(=O)c2cccc(-c3cnc4[nH]c(C)nc4c3)c2)C1	-17%	2.98
CN1CCN(CCCNc2ncnc3cc[nH]c23)CC1	1%	-0.12
Cc1nn(C(C)C)c(C)c1S(=O)(=O)N1CC[C@H](Oc2nccnc2C#N)C1	0%	0.07
CN(C)C1CN(S(=O)(=O)N2CCC(C)(C)CC2)CC1O (centres undefined)	3%	-0.44
Cc1noc(C)c1[C@@H](C)CNS(=O)(=O)c1ccc(C(=O)O)cc1	-11%	1.64
c1ccc(C2(CNc3nc4ccccc4[nH]3)CCC2)nc1	1%	-0.19
CS(=O)(=O)N1CCc2ccc(C(=O)NCCN3CCC(N4CCCCC4)CC3)cc21	4%	-0.62
COCc1cc(NC(=O)NC2C(C)C(OC)C2(C)C)ncn1 (centres undefined)	-6%	0.91
CCN(Cc1noc(C)n1)C(=O)Nc1ccccc1CCC(=O)NC	-10%	1.73
Cc1cc(F)ccc1S(=O)(=O)NC1COCC1CS(=O)(=O)N(C)C (centres undefined)	0%	-0.1
C[C@@H](Cn1cccn1)n1cnc(-c2ccccc2)c1-c1cnc2ccccc2c1	-1%	0.2
CO[C@H]1C[C@H]2CC(NCCCNc3ccccc3)C[C@H]2C1 (some centres undefined)	-1%	0.08
c1ccc2c(N3CCN(Cc4cc(CN5CCCC5)cs4)CC3)nsc2c1	-2%	0.44
CC(CN1CCOCC1)N1CCC(Oc2ccnc(CN(C)C)c2)C1 (centres undefined)	5%	-1.09
CCN1CCOC(CNC(=O)C2CCCC(C(=O)O)C2)C1c1cnn(C)c1 (centres undefined)	0%	-0.09
O=C(NCCN1CCC(N2CCCCC2)CC1)c1cc2n(n1)C[C@@H](Oc1ccncc1)C2	1%	-0.13
COCC(O)CN1CCC(NC2CCCNc3ccccc32)CC1 (centres undefined)	-7%	1.28
COC[C@H](C)/N=C(\N)NCc1ccc(OC)c(C(=O)OC)c1	-2%	0.38
Cc1nc(N2CCC(Nc3ncc(Cl)cn3)CC2)cc(C(F)(F)F)n1	6%	-1.28
CCc1nnc(-c2ccc(NCc3cccc4[nH]ccc34)cc2)o1	-5%	0.85
CN(Cc1ccncn1)C1CCN(c2ccc(-c3cccc(F)c3)cc2)CC1	-3%	0.55
N#Cc1ccc(N2CCN(c3nccc4ccc(F)cc34)CC2)nc1	-2%	0.31
